Test results from publication PMC7821199.
These are yes or no findings as the source states them, for the method shown. Some results given as binding are weak or reduced against the parent protein; the word gives no strength.

T1: CotB C-terminal region (CotB^C, residues 195-380) (Bacillus subtilis) (UniProt P07789)
T1 sequence: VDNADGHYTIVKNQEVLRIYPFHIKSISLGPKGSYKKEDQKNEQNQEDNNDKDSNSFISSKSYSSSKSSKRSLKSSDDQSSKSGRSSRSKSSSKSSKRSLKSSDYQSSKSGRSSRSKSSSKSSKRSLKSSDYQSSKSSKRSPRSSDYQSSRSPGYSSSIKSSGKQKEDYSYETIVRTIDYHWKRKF

T2: CotB N-terminal region (CotB^N, residues 1-213) (Bacillus subtilis) (UniProt P07789)
T2 sequence: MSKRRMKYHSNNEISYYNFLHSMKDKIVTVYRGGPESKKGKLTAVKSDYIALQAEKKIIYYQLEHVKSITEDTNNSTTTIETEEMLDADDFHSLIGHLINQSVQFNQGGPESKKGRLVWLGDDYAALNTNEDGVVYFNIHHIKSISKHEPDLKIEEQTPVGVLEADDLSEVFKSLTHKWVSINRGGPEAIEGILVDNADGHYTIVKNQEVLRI

T3: CotB full length (CotB^FL) (Bacillus subtilis) (UniProt P07789)
T3 sequence: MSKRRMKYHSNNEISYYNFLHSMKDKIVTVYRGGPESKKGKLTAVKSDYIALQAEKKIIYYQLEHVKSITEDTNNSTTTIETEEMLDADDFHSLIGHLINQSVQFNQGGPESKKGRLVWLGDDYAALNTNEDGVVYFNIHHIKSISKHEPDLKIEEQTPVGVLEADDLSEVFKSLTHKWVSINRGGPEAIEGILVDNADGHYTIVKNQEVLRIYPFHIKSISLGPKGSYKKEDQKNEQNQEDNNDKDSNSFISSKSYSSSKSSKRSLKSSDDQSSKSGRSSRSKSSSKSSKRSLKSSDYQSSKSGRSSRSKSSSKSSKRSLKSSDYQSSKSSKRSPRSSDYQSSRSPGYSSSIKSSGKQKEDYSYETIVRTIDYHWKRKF

T4: CotG (Bacillus subtilis) (UniProt P39801)
T4 sequence: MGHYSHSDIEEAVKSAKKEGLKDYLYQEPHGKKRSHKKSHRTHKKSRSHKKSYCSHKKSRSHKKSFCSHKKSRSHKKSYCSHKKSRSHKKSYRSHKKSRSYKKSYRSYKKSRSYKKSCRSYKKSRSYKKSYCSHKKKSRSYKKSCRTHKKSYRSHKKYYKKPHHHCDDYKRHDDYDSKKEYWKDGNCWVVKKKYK

T5: CotH (Bacillus subtilis) (UniProt Q45535)
T5 sequence: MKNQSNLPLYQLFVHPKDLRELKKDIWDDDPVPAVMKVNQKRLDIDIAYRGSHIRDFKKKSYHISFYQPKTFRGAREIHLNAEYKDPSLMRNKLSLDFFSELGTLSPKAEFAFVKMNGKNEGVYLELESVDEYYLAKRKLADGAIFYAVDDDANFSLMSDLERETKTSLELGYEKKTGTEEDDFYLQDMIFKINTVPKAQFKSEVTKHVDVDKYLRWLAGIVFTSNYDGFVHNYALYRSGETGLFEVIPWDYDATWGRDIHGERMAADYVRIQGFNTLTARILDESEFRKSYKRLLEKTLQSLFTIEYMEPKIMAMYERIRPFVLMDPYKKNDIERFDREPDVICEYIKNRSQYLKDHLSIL

B1: CotG (protein, UniProt P39801 1-195)
chain: T4 sequence
B2: CotH (enzyme, UniProt Q45535 1-362)
chain: T5 sequence
B3: CotB full length (CotB^FL) (protein, UniProt P07789 1-380)
chain: T3 sequence
B4: CotB N-terminal region (CotB^N, residues 1-213) (domain or fragment, UniProt P07789 1-213)
chain: T2 sequence
B5: CotB C-terminal region (CotB^C, residues 195-380) (domain or fragment, UniProt P07789 195-380)
chain: T1 sequence

target: T1, CotB C-terminal region (CotB^C, residues 195-380) (Bacillus subtilis); assay: two-hybrid; GAL4-based yeast two-hybrid; AD fusions in pACT-2 (strain Y190), BD fusions in pAS2-1 (strain Y187), diploids; colony lift assay for lacZ expression; +++, + and − mean colour in 30 min, 1 hr and greater than 1 hr; three independent colonies for each combination

| binding | Binder |
| --- | --- |
| binds | B1 |
| no binding | B2 |
| no binding | B3 |
| no binding | B4 |
| no binding | B5 |

target: T2, CotB N-terminal region (CotB^N, residues 1-213) (Bacillus subtilis); assay: as above

| binding | Binder |
| --- | --- |
| no binding | B1 |
| no binding | B2 |
| binds | B3 |
| binds | B4 |
| no binding | B5 |

target: T3, CotB full length (CotB^FL) (Bacillus subtilis); assay: as above

| binding | Binder |
| --- | --- |
| binds | B1 |
| no binding | B2 |
| binds | B3 |
| binds | B4 |

target: T4, CotG (Bacillus subtilis); assay: as above

| binding | Binder |
| --- | --- |
| binds | B1 |
| no binding | B2 |
| binds | B3 |
| no binding | B4 |
| binds | B5 |

target: T5, CotH (Bacillus subtilis); assay: as above

| binding | Binder |
| --- | --- |
| no binding | B1 |
| no binding | B2 |
| no binding | B3 |
| no binding | B4 |
| no binding | B5 |
